Assay results taken from PubChem BioAssay AID1508642 (National Center for Advancing Translational Sciences (NCATS), 2021).
Among all 43,000 compounds or so, about 200 (0.47%) were called active. Another 12% or so got no clear call; they are omitted. The call rests on the fitted dose curve; in most records, active means well fitted cell-killing curve with a large enough effect; inconclusive means small, poorly fitted or top-dose-only effect, or effect the other way; inactive means flat fitted curve, though single readings scatter. Some of the results follow.

Test: Cell viability qHTS assay in S16 Pmp22-F2sN cells; further: nearly all actives have a fitted effect of over 65% in size
Details: S16 Pmp22-F2sN Schwann cells (luciferase reporters placed in the Pmp22 gene) viability, CellTiter-Glo, 24 h; series mostly up to 57.5 µM; activity change, negative = cytotoxicity: at the top concentration
Outline: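 Rat S16 Schwann reporter line, 24 h treatment with library compounds delivered at 23 nL per well. Cell viability by CellTiter-Glo luminescence.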
On the % scale 0 is the no-effect control and ±100 the full control effect; potency means the concentration at half of the fitted maximal effect.

Row | Structure (SMILES) | activity change, negative = cytotoxicity | Potency
1 | NS(=O)(=O)c1ccc(CCNc2ncnc3c2cnn3-c2cccc(Cl)c2)cc1 | inactive: 11.4% | –
2 | O=C(NCc1ccccc1Cl)c1ccc2c(c1)N(Cc1ccccc1)C(=O)CS2 | inactive: -26.1% | –
3 | Cc1ccc2c(c1)-c1c(cnc3cc(-c4ccc(F)cc4)nn13)CO2 | inactive: -0.0287% | –
4 | CCc1ccc(C2=C(C)C(N3CCC(C(=O)NCc4ccccc4)CC3)=NS2(=O)=O)cc1 | inactive: 1.67% | –
5 | Cc1ccc(CNC(=O)c2c(O)nc3cc(C)ccn3c2=O)cc1 | inactive: -9.08% | –
6 | CC(c1ccccc1)n1cc2c(c1-c1ccccc1Br)c(=O)n(C)c(=O)n2C (stereo unspecified) | inactive: -8.78% | –
7 | COc1cccc(NC(=O)CCc2c(C)nc3nc(CNC(=O)c4cccc(F)c4)nn3c2C)c1 | inactive: -0.645% | –
8 | CCc1cc(C(=O)Nc2sc(C)c(CC)c2C#N)no1 | inactive: 3.81% | –
9 | CCCCOc1cccc(C(=O)Nc2cc(NC(=O)c3ccco3)ccc2OC)c1 | inactive: -3.56% | –
10 | CCc1ccc(CN2CCc3nc(N4CCN(c5ccccc5F)CC4)ncc3C2)cc1 | inactive: -23% | –
11 | C#CCOc1ccc(-c2nnc(Nc3ccc(NC(C)=O)cc3)c3ccccc23)cc1 | inactive: 7.12% | –
12 | COc1cccc2c1ncc1c(-c3ccc(C)cc3)nn(-c3ccc(F)cc3)c12 | inactive: 2.51% | –
13 | CC(C)COc1ccc(C(=O)N2CCCCC2CCN2CCCCC2)cc1 (stereo unspecified) | inactive: 0.254% | –
14 | COc1ccc(CCNC(=O)c2cnn(-c3cccc(C)c3)c2C2CCN(C(=O)OC(C)(C)C)CC2)cc1OC | inactive: -2.2% | –
15 | CC(=O)c1ccc(NC(=O)c2noc3c2CSc2ccccc2-3)cc1 | inactive: 17% | –
16 | O=C(NCCN1CCN(c2cccc(Cl)c2)CC1)Nc1ccccc1C(F)(F)F | inactive: -12.7% | –
17 | Cc1ccc(CNc2nc(-c3ccco3)nn2S(=O)(=O)c2ccc3ccccc3c2)cc1 | inactive: -19.7% | –
18 | O=C(CSc1ncc(-c2ccccc2)[nH]1)Nc1ccc(Cl)cc1 | inactive: 1.66% | –
19 | CSc1ncc(C(=O)N2CCN(c3cccc(Cl)c3)CC2)c(C)n1 | inactive: -0.848% | –
20 | O=C(CCCn1c(=O)c2cccn2c2cccnc21)NCc1ccccc1Br | inactive: -1.59% | –
21 | O=C(CC1C(=O)N(c2ccccc2)C(=O)N1CCc1cccs1)Nc1ccc(F)cc1 (stereo unspecified) | inactive: -17.5% | –
22 | CCOc1ccc(CCNC(=O)Cn2nnc(-c3ccccc3Cl)n2)cc1OCC | inactive: 5.72% | –
23 | Cc1c(C)n(Cc2ccc(F)cc2)c2ccc(C(=O)NCc3ccco3)cc12 | inactive: -2.81% | –
24 | O=C(Cn1c(=O)nc(-c2ccccc2)c2cc(Cl)ccc21)N1CCN(c2ccccc2F)CC1 | inactive: 11.6% | –

Row | Structure (SMILES) | activity change, negative = cytotoxicity | Potency
25 | COc1ccc(Cl)cc1NC(=O)CN1C(=O)C(C)(C)c2cc(S(=O)(=O)N3CCCCC3)ccc21 | inactive: -1.91% | –
26 | Cc1ccccc1CNC(=O)c1oc2c(c1C)-c1[nH]ncc1CC2 | inactive: 2.17% | –
27 | Cc1ccc2nc(Cl)c3cc(C(=O)N4CCCCC4C)sc3c2c1 (stereo unspecified) | inactive: 8.3% | –
28 | Cc1cn(C)c(CC(=O)NCc2ccccc2)c1C(=O)O | inactive: 3.6% | –
29 | Cc1ccsc1CN(C(=O)c1oc2ccc(Br)cc2c1C)C1CCS(=O)(=O)C1 (stereo unspecified) | inactive: -28.5% | –
30 | CCOc1ccc(C2c3c(oc4ccc(C)cc4c3=O)C(=O)N2CCCN2CCOCC2)cc1 (stereo unspecified) | inactive: -6.91% | –
31 | CCN1c2ccccc2-c2nc(SCC(=O)NCc3ccc(Cl)cc3)ncc2S1(=O)=O | inactive: -5.34% | –
32 | Cc1cccc(-n2ncc(C(=O)N3CCN(c4ccc(C)cc4C)CC3)c2C2CCN(C(=O)OC(C)(C)C)CC2)c1 | inactive: 22.7% | –
33 | Cc1cc(N2CCN(C)CC2)nc2ccc(NC(=O)Nc3cccc(Cl)c3)cc12 | – | active: 25.1 µM
34 | Cc1cccc(-n2ncc(C(=O)NCc3ccccn3)c2C2CCN(C(=O)OC(C)(C)C)CC2)c1 | inactive: -4.75% | –
35 | CCN1CCN(Cc2c(O)ccc3c(C)c(-c4ccccc4)c(=O)oc23)CC1 | inactive: -18.7% | –
36 | CCOC(=O)N1CCC2(CC1)OC(=O)C(C)=C2C(=O)NCc1cccc(OC)c1 | inactive: -0.541% | –
37 | Cn1c(=O)n(-c2cccc(Cl)c2)c(=O)c2sc3ccccc3c21 | inactive: 8.64% | –
38 | Cc1cc(NC(=O)Cn2nc(C)n3cccc3c2=O)ccc1Br | inactive: 14.3% | –
39 | CCCS(=O)(=O)N1CC(=O)N(c2ccccc2C)C(C)(C(=O)NC2CCCC2)C1 (stereo unspecified) | inactive: 7.01% | –
40 | CNC(=O)c1sc2ncccc2c1-n1cccc1 | inactive: -8.34% | –
41 | Cc1ccc(NC(=O)Cn2c(=O)n(CCC(=O)NCc3ccc4c(c3)OCO4)c(=O)c3sccc32)c(C)c1 | inactive: 4.12% | –
42 | Cc1ccc(C)c(N2CCN(c3nc4ccccc4n4c(C)nnc34)CC2)c1 | inactive: -13.1% | –
43 | Cc1ccc(NC(=O)C(c2ccccc2)N2Cc3ccccc3C2=O)cc1Cl (stereo unspecified) | inactive: 10.6% | –
44 | O=C(CSc1nc2c(c(=O)[nH]1)CCCC2)Nc1ccc(Br)cc1 | inactive: -11.9% | –
45 | CC(C)(C)OC(=O)N1CCC(c2c(C(=O)Nc3ccc4c(c3)OCCO4)cnn2-c2ccccc2)CC1 | inactive: -8.98% | –
46 | CCc1ccc(NC(=O)c2nn(-c3ccc(C)cc3)c(=O)n(C)c2=O)cc1 | inactive: 9.79% | –
47 | CCc1ccccc1NC(=O)CN1C(=O)c2cccnc2Oc2ccc(Cl)cc21 | inactive: 3.72% | –
48 | CCOc1ccc(Br)cc1CNCCSc1nnnn1-c1ccccc1 | inactive: -6.67% | –

Row | Structure (SMILES) | activity change, negative = cytotoxicity | Potency
49 | COc1ccc(CNC(=O)c2cc3c(s2)-c2c(C)cccc2OC3)cc1 | inactive: -12.6% | –
50 | CCOC(=O)c1oc2c(c1C)-c1nn(Cc3ccccc3Cl)cc1CC2 | inactive: -30% | –
51 | Cc1ccc(C)c(NC(=O)C(=O)NCCc2csc3nc(-c4ccccc4C)nn23)c1 | inactive: -9.3% | –
52 | COC(=O)NCc1c(C)nn(-c2ccccc2)c1-n1cccc1 | inactive: 0.0575% | –
53 | Cc1cc2c(cc1C)NC(CC(=O)Nc1ccccc1SC(F)(F)F)C(=O)N2 (stereo unspecified) | inactive: 1.09% | –
54 | CCCCOc1ccc(NC(=O)Cn2nnnc2-c2ccccc2F)cc1 | inactive: -0.977% | –
55 | O=C(COCc1cc(-c2cccs2)on1)Nc1ccc(OC(F)(F)F)cc1 | inactive: -7.94% | –
56 | Cc1ccc(S(=O)(=O)c2nc(-c3ccco3)oc2SCC(C)C)cc1 | inactive: -17.1% | –
57 | COc1cc(OC)c(NC(=O)Cn2cnc3sc(C)c(S(=O)(=O)N4CCN(C)CC4)c3c2=O)cc1Cl | inactive: -8.14% | –
58 | COc1ccc2ncc3c(-c4ccc(C)c(C)c4)nn(CC(=O)NC4CCCCC4)c3c2c1 | inactive: 12.3% | –
59 | Cc1cnc2c(c1SCC(=O)Nc1ccc(F)cc1F)c(=O)n(C)c(=O)n2C | inactive: 10% | –
60 | Cc1cc(F)ccc1NC(=O)C1CCCN(S(=O)(=O)c2ccc3c(c2)CCCC(=O)N3)C1 (stereo unspecified) | inactive: 10.1% | –
61 | COc1ccc(N(Cc2cccs2)C(=O)COc2ccc(C(C)C)cc2)cc1 | inactive: -21.8% | –
62 | COc1ccc(S(=O)(=O)c2c(Nc3ccc(C)cc3)sc(C(=O)c3ccc4c(c3)OCO4)c2N)cc1 | inactive: 11.3% | –
63 | CCc1cc2c(cc3c(=O)n(CC(=O)N4CCCCC4)ncn32)s1 | inactive: 10.4% | –
64 | CCOc1ccc2nc(N3CCCC(C(=O)Nc4cccc(Cl)c4C)C3)sc2c1 (stereo unspecified) | inactive: -0.677% | –
65 | CCCCN(CCCC)CCNC(=O)c1cc(-c2cccnc2)nc2ccc(S(=O)(=O)N3CCC(C)CC3)cc12 | inactive: 12.5% | –
66 | CCCCn1cc(S(=O)(=O)c2ccc(F)cc2)c(=O)c2ccccc21 | inactive: 5.54% | –
67 | COc1ccccc1CNC(=O)c1ccc(-c2nc(CS(=O)c3ccccc3)c(C)o2)cc1 (stereo unspecified) | inactive: -16.3% | –
68 | Cc1ccc(Cl)cc1NC(=O)CN1C(=O)COc2ccc(S(=O)(=O)N3CCOCC3)cc21 | inactive: -2.23% | –
69 | COc1cccc(CNC(=O)CN2C(=O)CSc3c2c(C)nn3-c2ccccc2)c1 | inactive: -4.83% | –
70 | Cc1ccc(-n2c(=O)c3ccc(C(=O)NCc4ccccc4Cl)cc3n(CC(=O)Nc3cccc(F)c3)c2=O)cc1 | inactive: -0.278% | –
71 | CN(C)c1ccc(CN(CC2CCCO2)C(=O)c2ccc(Br)cc2)cc1 (stereo unspecified) | inactive: 17.8% | –
72 | Cc1ccc2[nH]c3c(=O)n(CC(=O)N4CCN(c5cccc(C(F)(F)F)c5)CC4)ncc3c2c1 | inactive: 1.99% | –

Row | Structure (SMILES) | activity change, negative = cytotoxicity | Potency
73 | CCOc1ccc(N2C(=O)N(Cc3c(F)cccc3Cl)c3ccccc3S2(=O)=O)cc1 | inactive: -5.16% | –
74 | O=C(COC(=O)c1cccc(NC(=O)c2ccc(Br)cc2)c1)c1ccc(Br)cc1 | inactive: 2.81% | –
75 | COc1cccc(C(=O)Nc2ccc3nc(N4CCC(C)CC4)cc(C)c3c2)c1 | inactive: -0.868% | –
76 | Cc1nn2c(=O)cc(COC(=O)c3cccc(NC(=O)c4ccc(C(C)(C)C)cc4)c3)nc2s1 | inactive: 7.9% | –
77 | COc1ccc(C2=CC(c3cccc(C)c3)n3nnnc3N2)cc1 (stereo unspecified) | inactive: 9.56% | –
78 | CCOC(=O)c1c(C)oc2nc(C)nc(NCCc3ccc(SC)cc3)c12 | inactive: -8.4% | –
79 | COc1cc(NC(=O)Cn2nc(-c3ccc(C)c(C)c3)ccc2=O)cc(OC)c1 | inactive: 4.69% | –
80 | CCN(CC)S(=O)(=O)c1ccc2c(c1)N(CC(=O)Nc1ccc(C)cc1C)C(=O)C1CCCN21 (stereo unspecified) | inactive: 6.19% | –
81 | CC(C)NC(=O)c1ccccc1NC(=O)c1nsc2ccccc12 | inactive: -1.42% | –
82 | CCOC(=O)c1[nH]c2c(c1Cc1ccccc1OC)C(=O)CC(c1ccc(OCC)cc1)C2 (stereo unspecified) | inactive: -0.956% | –
83 | COc1ccc(C(=O)CCC(=O)Nc2ccc(OC)c(Cl)c2)cc1 | inactive: 4.31% | –
84 | O=C(c1ccco1)N1CCN(c2nc3c(Cl)cccc3s2)CC1 | inactive: -11.9% | –
85 | CCN(CC)S(=O)(=O)c1nnc(NC(=O)c2ccc(C(C)C)cc2)s1 | inactive: -6.02% | –
86 | O=C(Cn1c(=O)n(-c2ccc(Cl)cc2)c(=O)c2oc3ccccc3c21)Nc1ccccc1 | inactive: 0.192% | –
87 | CC1CCN(c2ncnc3c2nnn3C)CC1 | inactive: -12.4% | –
88 | Cc1cccc(N2CCN(CCCNC(=O)c3nnc(Cc4c(F)cccc4Cl)o3)CC2C)c1 (stereo unspecified) | inactive: -17.5% | –
89 | COc1cccc(C(=O)Nc2ccccc2-c2nnc(-c3cc(OC)ccc3Br)o2)c1 | inactive: 0.154% | –
90 | COc1ccc(C2=C(C)C(=O)N(Cc3ccc(C(=O)Nc4cc(C)ccc4C)cc3)S2(=O)=O)cc1 | inactive: -4.15% | –
91 | O=C(Cc1ccc(Cl)cc1)NCC(c1cccs1)S(=O)(=O)c1ccc(F)cc1 (stereo unspecified) | inactive: -1.44% | –
92 | Cn1cnc(S(=O)(=O)N2CCC(C(=O)NCc3ccc(F)cc3)CC2)c1 | inactive: 4.59% | –
93 | O=C(Nc1ccc(Cl)cc1)c1cc(S(=O)(=O)N2CCc3ccccc32)ccc1F | inactive: -19.9% | –
94 | Cc1ccc(S(=O)(=O)Nc2nc3n(n2)C(c2ccccc2Cl)C=C(c2ccccc2)N3)cc1 (stereo unspecified) | inactive: -5.38% | –
95 | COc1ccc(-c2nc(Cn3c(SCc4ccccc4F)nc4ccncc43)c(C)o2)cc1OC | inactive: -14.8% | –
96 | O=C(CCS(=O)(=O)c1cc(Br)cc2c1N(C(=O)C1CC1)CC2)Nc1ccc(C(F)(F)F)cc1 | inactive: 4.81% | –
